In the antibiotic and cytotoxicity screens of Wong et al. (2023):
Some of the results follow.

What follows are compounds tested on S. aureus RN4220 (assay: growth inhibition call (relative growth <= 0.2)). Conditions: 50 µM.

Growth inhibition call, inactive:
Fc1cccc(CSCc2c(F)cccc2Cl)c1, C[C@H](CO)N1C[C@H](C)[C@H](CN(C)Cc2ccc(C(=O)O)cc2)Oc2ccc(NS(=O)(=O)c3cn(C)cn3)cc2C1=O, C[C@H]1CN([C@@H](C)CO)C(=O)c2cc(NC(=O)Nc3cccc4ccccc34)ccc2O[C@@H]1CN(C)Cc1ccc(Cl)c(Cl)c1, C[C@H]1CN([C@@H](C)CO)S(=O)(=O)c2ccc(-c3cncnc3)cc2O[C@H]1CN(C)C(=O)c1cccc(F)c1, C[C@@H]1CCCCO[C@H](CN(C)C(=O)Nc2ccc(F)cc2)[C@H](C)CN([C@@H](C)CO)C(=O)c2cc(NS(=O)(=O)c3ccc(F)cc3)ccc2O1, C[C@@H]1CCCCO[C@@H](CN(C)C(=O)c2ccccc2)[C@H](C)CN([C@@H](C)CO)C(=O)c2cc(NC(=O)Nc3ccc(C(F)(F)F)cc3)ccc2O1, C[C@@H]1CN([C@H](C)CO)S(=O)(=O)c2ccc(C#Cc3ccc(F)cc3)cc2O[C@@H]1CN(C)C(=O)c1ccccn1, COc1ccc(S(=O)(=O)Nc2ccc3c(c2)C(=O)N([C@H](C)CO)C[C@@H](C)[C@@H](CN(C)C(=O)Nc2ccccc2)OCCCC[C@@H](C)O3)cc1, O=C(C[C@H]1C[C@H]2c3cc(NC(=O)Cc4ccncc4)ccc3O[C@H]2[C@@H](CO)O1)NCc1cccc(F)c1, C[C@@H]1CN([C@H](C)CO)C(=O)c2cccc(NS(=O)(=O)c3cccs3)c2O[C@@H]1CN(C)Cc1ccc(-c2ccccc2)cc1
